In the antibiotic and cytotoxicity screens of Wong et al. (2023) one finds cytotoxicity call and growth inhibition call data, which are given here for 29 compounds.

The test system of one assay is HSkMC. The assay can be described thus: cytotoxicity call (relative viability < 0.9). As to conditions: 10 µM.
In a further assay the test system is HepG2. The assay can be described thus: cytotoxicity call (relative viability < 0.9). To be noted: 10 µM.
The subject of another assay is S. aureus RN4220. The assay can be described thus: growth inhibition call (relative growth <= 0.2). To be noted: 50 µM.

The list shows a part of the results.

For the compound `C[C@H]1CN([C@@H](C)CO)S(=O)(=O)c2ccc(C#Cc3ccncc3)cc2O[C@@H]1CN(C)C(=O)C1CCCCC1`, the cytotoxicity call with HSkMC is “inactive”. In the assay with HepG2, the cytotoxicity call was “active”. Moreover, the growth inhibition call in the assay on S. aureus RN4220 was “inactive”.

As to `COc1ccc(S(=O)(=O)N(C)C[C@@H]2Oc3c(NC(=O)NC(C)C)cccc3C(=O)N([C@@H](C)CO)C[C@@H]2C)cc1`, the cytotoxicity call in the assay with HSkMC and with HepG2 was “inactive” in each case. Besides, in the assay with S. aureus RN4220, the growth inhibition call was “inactive”.

Regarding `Cc1noc(C)c1NC(=O)Nc1ccc2c(c1)CC(=O)N([C@H](C)CO)C[C@@H](C)[C@@H](CN(C)C(=O)NC(C)C)O2`, the cytotoxicity call in the assay on HSkMC and in the assay on HepG2 was “inactive” each time. For the same compound, in the assay with S. aureus RN4220, the growth inhibition call is “inactive”.

With `COc1cccc(S(=O)(=O)Nc2ccc3c(c2)OC[C@H](C)N(C(=O)Cc2cccnc2)C[C@H](C)[C@H](OC)CN(C)C3=O)c1`, the cytotoxicity call with HSkMC and in the assay with HepG2 was “inactive” in each case. The growth inhibition call in the assay with S. aureus RN4220 is “inactive”.

Take `N[C@@H](C[C@@H](F)C(=O)O)C(=O)O`: the cytotoxicity call with HSkMC and in the assay with HepG2 was “inactive” throughout. Also, the growth inhibition call in the assay on S. aureus RN4220 is “inactive”.

Consider `O=C(O)c1cn(-c2ccccc2)nn1`, for which the cytotoxicity call with HSkMC and in the assay with HepG2 was “inactive” in each case. For the same compound, the growth inhibition call in the assay on S. aureus RN4220 was “inactive”.

Take `C[C@H](CO)N1C[C@H](C)[C@@H](CN(C)C(=O)Nc2ccccc2C(F)(F)F)OCc2cnnn2CCCC1=O`: the cytotoxicity call in the assay on HSkMC and in the assay with HepG2 was “inactive” in each case. In addition, in the assay with S. aureus RN4220, the growth inhibition call was “inactive”.

Take `C[C@H](CO)N1C[C@H](C)[C@@H](CN(C)C(=O)c2cnccn2)Oc2ncc(C#CCN(C)C)cc2C1=O`: the cytotoxicity call in the assay on HSkMC and in the assay on HepG2 was “inactive” in each case. For the same compound, the growth inhibition call in the assay on S. aureus RN4220 was “inactive”.

As to `O=C(NO)c1cccc(C(=O)N/N=C/[C@H](O)[C@@H](O)[C@H](O)CO)c1`, the cytotoxicity call in the assay with HSkMC and with HepG2 was “inactive” throughout. In addition, the growth inhibition call in the assay on S. aureus RN4220 is “inactive”.

As for `CN(C)C/C=C/C(=O)Nc1ccc(C(=O)Nc2cccc(Nc3ncc(Cl)c(-c4c[nH]c5ccccc45)n3)c2)cc1`, the cytotoxicity call in the assay on HSkMC and in the assay with HepG2 was “active” each time. The growth inhibition call in the assay on S. aureus RN4220 was “inactive”.

As to `C[C@@H]1CN([C@H](C)CO)C(=O)c2cccc(NS(=O)(=O)c3cn(C)cn3)c2O[C@H]1CN(C)Cc1ccc(C(=O)Nc2ccccc2N)cc1`, the cytotoxicity call in the assay on HSkMC and in the assay with HepG2 was “inactive” throughout. The growth inhibition call with S. aureus RN4220 is “inactive”.

Consider `Cc1ccc(S(=O)(=O)Nc2ccc3c(c2)C(=O)N([C@@H](C)CO)C[C@@H](C)[C@@H](CN(C)S(=O)(=O)c2cn(C)cn2)O3)cc1`, for which the cytotoxicity call in the assay with HSkMC and with HepG2 was “inactive” throughout. The growth inhibition call in the assay with S. aureus RN4220 is “inactive”.

In the case of `O=C(CCc1ccc(O)cc1)c1c(O)cc(O)cc1O[C@@H]1O[C@H](CO)[C@@H](O)[C@H](O)[C@H]1O`, the cytotoxicity call in the assay on HSkMC and with HepG2 was “inactive” throughout. Further, the growth inhibition call in the assay with S. aureus RN4220 was “inactive”.

For `Cc1nc(-c2ccc(Cl)cc2)c(-c2ccccc2)s1`, the cytotoxicity call in the assay on HSkMC was “inactive”. Further, in the assay on HepG2, the cytotoxicity call is “active”. Moreover, the growth inhibition call with S. aureus RN4220 is “inactive”.

For `C[C@@H]1CN([C@@H](C)CO)C(=O)Cc2cc(NC(=O)CCN3CCOCC3)ccc2O[C@@H]1CN(C)Cc1ccncc1`, the cytotoxicity call in the assay on HSkMC and in the assay on HepG2 was “inactive” in each case. Moreover, the growth inhibition call with S. aureus RN4220 is “inactive”.

Regarding `C[C@H]1CCCCO[C@H](CN(C)S(=O)(=O)c2ccc(F)cc2)[C@@H](C)CN([C@@H](C)CO)C(=O)c2cc(NC(=O)C3CCCCC3)ccc2O1`, the cytotoxicity call with HSkMC and in the assay on HepG2 was “inactive” in each case. For the same compound, in the assay on S. aureus RN4220, the growth inhibition call is “inactive”.

As to `C[C@H]1CN([C@@H](C)CO)C(=O)c2cccc(NC(=O)c3ccncc3)c2O[C@H]1CN(C)Cc1ccc2c(c1)OCO2`, the cytotoxicity call in the assay on HSkMC and in the assay on HepG2 was “inactive” each time. Also, the growth inhibition call in the assay with S. aureus RN4220 is “inactive”.

In the case of `C[C@@H]1CN([C@@H](C)CO)C(=O)c2cccc(NS(=O)(=O)c3cn(C)cn3)c2O[C@@H]1CN(C)CC1CC1`, the cytotoxicity call with HSkMC and with HepG2 was “inactive” throughout. The growth inhibition call with S. aureus RN4220 was “inactive”.

For the compound `COc1ccc(S(=O)(=O)N(C)C[C@H]2Oc3ccc(NC(=O)c4ccncc4)cc3CC(=O)N([C@@H](C)CO)C[C@H]2C)cc1`, the cytotoxicity call in the assay with HSkMC and in the assay on HepG2 was “inactive” each time. Also, the growth inhibition call in the assay with S. aureus RN4220 is “inactive”.

Regarding `C[C@H](CO)N1C[C@H](C)[C@@H](CN(C)C(=O)Nc2ccc(F)cc2)OCCCC[C@H](C)Oc2ccc(NC(=O)c3ccccc3)cc2C1=O`, the cytotoxicity call in the assay on HSkMC and in the assay with HepG2 was “inactive” throughout. In addition, the growth inhibition call in the assay on S. aureus RN4220 is “inactive”.

`CCOc1cc(N)ncn1`: the cytotoxicity call in the assay on HSkMC and in the assay on HepG2 was “inactive” in each case. In the assay with S. aureus RN4220, the growth inhibition call is “inactive”.

As to `COc1ccc(NC(=O)N(C)C[C@@H]2Oc3c(NC(=O)CCCCCC(=O)Nc4ccccc4N)cccc3C(=O)N([C@@H](C)CO)C[C@H]2C)cc1`, the cytotoxicity call with HSkMC and with HepG2 was “inactive” in each case. In addition, the growth inhibition call with S. aureus RN4220 was “inactive”.

Take `C[C@H](c1cccnc1)N(C(=O)Nc1ccccc1)C1CCCCC1`: in the assay on HSkMC (human skeletal muscle cells), the cytotoxicity call is “inactive”. Also, the cytotoxicity call with HepG2 is “active”. The growth inhibition call with S. aureus RN4220 is “inactive”.

For `C[C@H]1CN([C@@H](C)CO)S(=O)(=O)c2ccc(-c3cccnc3)cc2O[C@@H]1CN(C)C(=O)c1cccc(F)c1`, the cytotoxicity call in the assay with HSkMC and in the assay on HepG2 was “inactive” in each case. Further, the growth inhibition call in the assay on S. aureus RN4220 is “inactive”.

Take `C[C@@H]1CN([C@H](C)CO)C(=O)c2cccc(NC(=O)Nc3ccc(F)cc3)c2O[C@H]1CN(C)S(=O)(=O)c1cn(C)cn1`: the cytotoxicity call with HSkMC and in the assay with HepG2 was “inactive” throughout. The growth inhibition call in the assay with S. aureus RN4220 was “inactive”.

`C[C@@H]1CN([C@@H](C)CO)C(=O)c2cc(NC(=O)Nc3ccc(F)cc3)ccc2O[C@@H](C)CCCCO[C@@H]1CN(C)C(=O)Cc1ccccc1`: the cytotoxicity call in the assay with HSkMC and in the assay on HepG2 was “inactive” throughout. Besides, the growth inhibition call in the assay on S. aureus RN4220 is “inactive”.

For the compound `COc1cccc(S(=O)(=O)N(C)C[C@@H]2Oc3ncc(C#CCN(C)C)cc3C(=O)N([C@H](C)CO)C[C@@H]2C)c1`, the cytotoxicity call with HSkMC and in the assay with HepG2 was “inactive” each time. Besides, in the assay on S. aureus RN4220, the growth inhibition call is “inactive”.

As to `Cc1noc(C)c1NC(=O)Nc1ccc2c(c1)C(=O)N([C@H](C)CO)C[C@H](C)[C@@H](CN(C)C(=O)C1CCCCC1)OCCCC[C@@H](C)O2`, the cytotoxicity call in the assay with HSkMC and in the assay on HepG2 was “inactive” in each case. Also, in the assay with S. aureus RN4220, the growth inhibition call is “inactive”.

Regarding `CCn1nnc2c(=S)nc[nH]c21`, the cytotoxicity call in the assay with HSkMC and in the assay on HepG2 was “inactive” each time. The growth inhibition call in the assay with S. aureus RN4220 was “inactive”.
